Laboratory results published in PubChem BioAssay AID624418 (National Center for Advancing Translational Sciences (NCATS), 2012).
Values joined by “and” are separate entries in the source; they are usually repeats but may differ in a detail not shown here. Equal entries are not always repeated. The whole screen tested about 410,000 compounds, of which about 530 (0.13%) were called active. The shares of active, inactive and inconclusive entries below differ from those in the screen. Calls come from the whole dose curve; as a rule, active = well fitted inhibition curve with a large enough effect; inconclusive = small, poorly fitted or top-dose-only effect, or another doubt; inactive = no such curve, though single readings can be large or run the other way. Potencies of inconclusive entries are doubtful fits and often do not repeat.

Assay: qHTS of GLP-1 Receptor Inverse Agonists: Cytotox Screen
Settings: HEK293 cAMP-luciferase reporter cells, luminescence, 24 h; activity change, negative = inhibition: at 38.3 µM (top of the series) unless noted
Summary of the method: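 To flag toxic compounds, the library was rerun on cells for 24 hr at 37 deg C and 5% CO2. Viability-linked luminescence was captured 12 min after adding luciferase detection reagent.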
% is set by controls: 0 for no effect and ±100 for the full control effect; potency is the fitted concentration of half-maximal effect.

Q: Which Potency does the source give for Nn1c(SCc2ccc(F)cc2)nnc1-c1ccccn1 here?
A: The Potency was inconclusive: 2 µM [inhibitor, partial curve, poor fit].

Q: For CCc1ccccc1S(=O)(=O)Cc1ccc(C(=O)N2CCN(c3ccccc3OC)CC2)o1, which Potency is on record?
A: Its Potency is inconclusive: 17.8 µM [inhibitor, partial curve, poor fit].

Q: Which Potency does the source give for CC(C)OC(=O)c1ccc(NCc2cc(O)ccc2O)cc1 here?
A: The Potency was inconclusive: 14.1 µM [inhibitor, partial curve, poor fit].

Q: For CCOC(=O)c1c(C)c(C(=O)Nc2ccc3c(c2)OCCO3)c(C)n1CC, which Potency is on record?
A: The Potency was inconclusive: 1 µM [inhibitor, full curve, poor fit].

Q: With c1ccc(OCCNc2nc(NCC3CC3)nc3cc(-c4ccccc4)sc23)cc1 as the compound, how does the Potency read?
A: Its Potency is inconclusive: 20 µM [inhibitor, single point].

Q: Which Potency does the source give for CC(C)(C)c1ccc(NC(=O)NCc2ccco2)cc1 here?
A: Its Potency is inconclusive: 31.6 µM [inhibitor, partial curve, poor fit].

Q: With CCOc1cc(NC(=S)NCC2CCCO2)c(OCC)cc1NC(=O)c1cccc(C)c1 (centres undefined) as the compound, how does the Potency read?
A: Its Potency is inconclusive: 11.2 µM [inhibitor, partial curve, poor fit].

Q: Which Potency does the source give for O=C(CCC1COc2ccccc2O1)Nc1ccc(Cl)cn1 (centres undefined) here?
A: Its Potency is inconclusive: 28.2 µM [inhibitor, single point].

Q: For COc1cc(OC)c(N(C)S(=O)(=O)c2cccc(C(=O)NC3=NCCS3)c2)cc1Cl, which Potency is on record?
A: The Potency was inconclusive: 11.2 µM [inhibitor, single point].

Q: For Cc1ccc(C(=O)N2[C@@H]3CN(C)C(=O)[C@@]2(C)[C@H]2C(=O)N(Cc4ccccc4)C(=O)[C@@H]32)cc1, which “activity change, negative = inhibition” value is on record?
A: The value was inactive: -56.9%.

Q: For CC1=NOC(=O)/C1=C\c1ccc(-c2ccc(Cl)c(C(=O)O)c2)o1, which “activity change, negative = inhibition” value is on record?
A: Its value is inactive: 19.1%.

Q: Which “activity change, negative = inhibition” value does the source give for CCCn1c(C(=O)OC)cc2c1ccn2-c1ccc(F)cc1 here?
A: The value was inactive: -15.3%.

Q: Which Potency does the source give for CCOC(=O)c1c(CSc2ccccc2)oc2ccc(O)cc12 here?
A: The Potency was inconclusive: 31.6 µM [inhibitor, single point].

Q: Which “activity change, negative = inhibition” value does the source give for O=C(c1cc(Cl)cc(Cl)c1)N1CCC(=O)N([C@H](COCc2ccccc2)Cc2ccccc2)CC1 here?
A: The value was inactive: -11.5%.

Q: Which Potency does the source give for CCN(CC)S(=O)(=O)c1cc([N+](=O)[O-])ccc1NNC(=O)Nc1ccc(Cl)c(Cl)c1 here?
A: Its Potency is inconclusive: 10 µM [inhibitor, partial curve].

Q: For COc1ccc2[nH]c3c(=O)n(CCN4CCOCC4)cnc3c2c1, which “activity change, negative = inhibition” value is on record?
A: The value was inactive: -8.95%.

Q: With CCCCC(=O)NC(c1ccco1)c1cc(Cl)c2cccnc2c1O (centres undefined) as the compound, how does the Potency read?
A: The Potency was inconclusive: 10 µM [inhibitor, single point].

Q: With Cc1ccc(N2CN(CCC3=CCCCC3)CNC2=S)cc1 as the compound, how does the Potency read?
A: Its Potency is inconclusive: 12.6 µM [inhibitor, single point].

Q: For Cn1cc(/C=C(\NC(=O)c2ccccc2Cl)C(=O)NCCN2CCOCC2)c2ccccc21, which “activity change, negative = inhibition” value is on record?
A: Its value is inactive: -12.3%.

Q: For CCCCc1c(Cc2ccccc2)ncn1CCc1ccccc1OC, which Potency is on record?
A: The Potency was inconclusive: 28.2 µM [inhibitor, single point].

Q: For COc1ccc(-c2csc(NC(=S)NC(=O)/C=C/c3ccco3)n2)cc1OC, which Potency is on record?
A: The Potency was inconclusive: 14.1 µM [inhibitor, single point].

Q: Which Potency does the source give for COc1ccc(-c2n(CC(=O)OC3CC(C)CCC3C(C)C)c3ccccc3[n+]2C)cc1 (centres undefined) here?
A: The Potency was inconclusive: 4.47 µM [inhibitor, partial curve, poor fit].

Q: For COc1ccccc1NC(C)C(=O)N/N=C/c1ccccc1OCc1cccc(Br)c1 (centres undefined), which Potency is on record?
A: Its Potency is inconclusive: 31.6 µM [inhibitor, single point].

Q: For Cc1ccc(OCCSCc2nnc(NC(=O)Nc3cccc(Cl)c3)s2)cc1, which Potency is on record?
A: Its Potency is inconclusive: 12.6 µM [inhibitor, single point].

Q: For O=C(CCN1C(=O)c2ccccc2C1=O)Nc1ccccc1C(F)(F)F, which “activity change, negative = inhibition” value is on record?
A: Its value is inactive: 15.8%.

Q: For CNC(=S)N/N=C/c1ccc2c(c1)OCCO2, which Potency is on record?
A: Its Potency is inconclusive: 28.2 µM [inhibitor, single point].

Q: Which Potency does the source give for Cc1cccc(NS(=O)(=O)c2cnc(Cl)c(Br)c2)n1 here?
A: The Potency was inconclusive: 11.2 µM [inhibitor, partial curve, poor fit].

Q: Which Potency does the source give for CC(OCC(O)CN1CCCCC1CCO)c1ccc(Cl)cc1 (centres undefined) here?
A: Its Potency is inconclusive: 28.2 µM [inhibitor, single point].

Q: With CCS(=O)(=O)N1CCC(c2nc(-c3ccc(C)cc3)no2)CC1 as the compound, how does the “activity change, negative = inhibition” value read?
A: Its value is inactive: 6.18%.

Q: Which Potency does the source give for CS(=O)(=O)N1CCc2cc(C(=O)Nc3ccc(Cl)c(C(F)(F)F)c3)ccc21 here?
A: The Potency was inconclusive: 7.08 µM [inhibitor, partial curve].

Q: With Cc1ncc(CO)c2c1Oc1nc(-c3ccccc3)nc(SCC(=O)N3CCCCC3)c1C2 as the compound, how does the Potency read?
A: The Potency was inconclusive: 8.91 µM [inhibitor, partial curve, poor fit].

Q: Which “activity change, negative = inhibition” value does the source give for COc1ccc(CC(=O)Nc2ccc(S(=O)(=O)Nc3onc(C)c3C)cc2)cc1OC here?
A: The value was inactive: 0.5%.

Q: With Cn1nnc(NC(=S)NC(=O)c2cccc3c(Cl)cccc23)n1 as the compound, how does the Potency read?
A: Its Potency is inconclusive: 10 µM [inhibitor, partial curve, poor fit].

Q: For Cn1cc(CNCc2ccccc2OCC(O)CN2CCc3ccccc3C2)cn1 (centres undefined), which Potency is on record?
A: Its Potency is inconclusive: 28.2 µM [inhibitor, single point].

Q: With CCN(CC)CCC(c1cc(OC)c(OC)c(OC)c1)c1c(OC)cc(OC)c2c(-c3ccccc3)cc(=O)oc12 (centres undefined) as the compound, how does the Potency read?
A: The Potency was inconclusive: 28.2 µM [inhibitor, single point].

Q: With Cc1ccc2c(c1)C1CN(C)CCC1N2C(=S)NC(=O)c1ccc(Cl)cc1Cl (centres undefined) as the compound, how does the Potency read?
A: Its Potency is inconclusive: 11.2 µM [inhibitor, partial curve, poor fit].

Q: With Cc1c(C#N)c(O)n(CCO)c(=O)c1N=Nc1ccc2c(c1)COC2=O as the compound, how does the Potency read?
A: The Potency was inconclusive: 28.2 µM [inhibitor, single point].

Q: With Cc1cc(C)cc(-n2c(C)cc(/C=N/NC(=O)c3cccc([N+](=O)[O-])c3C)c2C)c1 as the compound, how does the Potency read?
A: The Potency was inconclusive: 28.2 µM [inhibitor, single point].

Q: With COc1cc(CNCCSc2nnnn2C)ccc1OCc1ccc(F)cc1 as the compound, how does the Potency read?
A: The Potency was inconclusive: 2.51 µM [inhibitor, partial curve, poor fit].

Q: Which Potency does the source give for CCOc1cc(/C=C2\NC(=S)N(c3c(C)n(C)n(-c4ccccc4)c3=O)C2=O)ccc1O here?
A: The Potency was inconclusive: 28.2 µM [inhibitor, single point].

Q: With COc1ccccc1CN(Cc1nc2ccccc2c(=O)[nH]1)C(=O)Nc1ccccc1 as the compound, how does the Potency read?
A: Its Potency is inconclusive: 12.6 µM [inhibitor, single point].

Q: With COc1cc(NC(=O)c2cnc(N)o2)cc(C(=O)Nc2cccc(C(F)(F)F)c2)c1 as the compound, how does the Potency read?
A: The Potency was inconclusive: 2.24 µM [inhibitor, full curve] and inconclusive: 7.94 µM [inhibitor, partial curve, poor fit].

Q: With CCc1ccc(NC(=O)Cn2c(=O)c(CNc3ccccc3)cc3cc(OC)c(OC)cc32)cc1 as the compound, how does the “activity change, negative = inhibition” value read?
A: Its value is inactive: 2.19%.

Q: For O=C(CCCCN1CCCCC1)c1ccc2c(c1)Cc1ccccc1-2, which “activity change, negative = inhibition” value is on record?
A: Its value is inactive: -7.71%.

Q: With CN(CCc1ccccn1)C(=S)Nc1cccc(S(=O)(=O)N(C)C)c1 as the compound, how does the Potency read?
A: Its Potency is inconclusive: 0.501 µM [inhibitor, full curve, poor fit].

Q: With COc1ccc(C(=O)Nc2nnc(C3=COCCO3)o2)cc1 as the compound, how does the Potency read?
A: Its Potency is inconclusive: 14.1 µM [inhibitor, single point].

Q: With O=C(NC1CC1)C1=C[C@@H](c2ccc(Br)cc2)C[C@@H](OCCCCO)O1 as the compound, how does the Potency read?
A: Its Potency is inconclusive: 1 µM [inhibitor, full curve, poor fit].

Q: Which Potency does the source give for CCN(Cc1ccccc1)S(=O)(=O)c1ccc(C(=O)N(CCCN(C)C)c2nc3cc(OC)ccc3s2)cc1 here?
A: The Potency was inconclusive: 28.2 µM [inhibitor, single point].

Q: With CCCC(=O)Nc1ccc2c(c1)c1ccccc1n2CC as the compound, how does the “activity change, negative = inhibition” value read?
A: Its value is inactive: 5.83%.

Q: Which Potency does the source give for CCC(C(=O)Nc1ccc2c(c1)OCCO2)n1nnc2ccccc2c1=O (centres undefined) here?
A: The Potency was inconclusive: 3.16 µM [inhibitor, full curve, poor fit].

Q: Which “activity change, negative = inhibition” value does the source give for COc1ccc(NC(=O)C2CCC(C(C)(C)C)CC2)cc1S(=O)(=O)N1CCCCC1 (centres undefined) here?
A: The value was inactive: 0.481%.

Q: For [O-][n+]1nc2ccccc2c2ccccc21, which “activity change, negative = inhibition” value is on record?
A: The value was inactive: -0.259%.

Q: For O=C(NCc1ccc(C(F)(F)F)cc1)C1CC(c2ccccc2[N+](=O)[O-])=NO1 (centres undefined), which Potency is on record?
A: The Potency was inconclusive: 0.562 µM [inhibitor, full curve].

Q: For OC(c1ccccc1)(C1CCCCC1)C(CN1CCOCC1)c1ccccc1 (centres undefined), which Potency is on record?
A: Its Potency is inconclusive: 11.2 µM [inhibitor, single point].

Q: For Cc1c(C)n(Cc2ccccc2)c2ccc(C(=O)NCc3ccc(OC(C)C)cc3)cc12, which “activity change, negative = inhibition” value is on record?
A: The value was inactive: 18.2%.

Q: With Cc1cccc(Cc2cnc(NC(=O)C3=NCCN3)s2)c1 as the compound, how does the Potency read?
A: The Potency was inconclusive: 17.8 µM [inhibitor, single point].

Q: With COc1ccc(OC)c(NS(=O)(=O)c2c(C(=O)N3CCCCCC3)c(C)n(C)c2C)c1 as the compound, how does the Potency read?
A: The Potency was inconclusive: 10 µM [inhibitor, single point].

Q: With COc1ccc(Nc2nc(Nc3ccc(OC)cc3)nc(-n3[nH]c(=O)c(C)c3C)n2)cc1 as the compound, how does the Potency read?
A: Its Potency is inconclusive: 2.24 µM [inhibitor, full curve, poor fit].

Q: With O=S(=O)(NNc1ncc(C(F)(F)F)cc1Cl)c1ccccc1 as the compound, how does the Potency read?
A: The Potency was inconclusive: 28.2 µM [inhibitor, single point].

Q: For S=C(/N=c1/sccn1Cc1ccccc1)NC1CC1, which Potency is on record?
A: The Potency was inconclusive: 28.2 µM [inhibitor, single point].

Q: With CCOC(=O)C1CCN(S(=O)(=O)CCNC(=O)c2ccc3c(c2)OCO3)CC1 as the compound, how does the “activity change, negative = inhibition” value read?
A: The value was inactive: 7.24%.

Q: Which Potency does the source give for Cc1ccc(C(=S)NCS(=O)(=O)c2ccc(C)cc2)cc1 here?
A: Its Potency is inconclusive: 22.4 µM [inhibitor, single point].

Q: With O=C(NC(=S)Nc1cc([N+](=O)[O-])ccc1Cl)c1ccccc1 as the compound, how does the Potency read?
A: The Potency was inconclusive: 11.2 µM [inhibitor, single point].

Q: With O=[N+]([O-])c1cc2ncccc2c2ncccc12 as the compound, how does the Potency read?
A: The Potency was inconclusive: 2.51 µM [inhibitor, partial curve, poor fit].
